According to the BET-seq Pho4 binding data (Le et al. 2018):
The list shows a part of the results. These are noisy estimates, calculated here from bound and input reads.

target: T1, Pho4 (S. cerevisiae) (UniProt P07270); assay: relative binding free energy (BET-seq); higher = weaker binding; conditions: reference: library average
T1 sequence: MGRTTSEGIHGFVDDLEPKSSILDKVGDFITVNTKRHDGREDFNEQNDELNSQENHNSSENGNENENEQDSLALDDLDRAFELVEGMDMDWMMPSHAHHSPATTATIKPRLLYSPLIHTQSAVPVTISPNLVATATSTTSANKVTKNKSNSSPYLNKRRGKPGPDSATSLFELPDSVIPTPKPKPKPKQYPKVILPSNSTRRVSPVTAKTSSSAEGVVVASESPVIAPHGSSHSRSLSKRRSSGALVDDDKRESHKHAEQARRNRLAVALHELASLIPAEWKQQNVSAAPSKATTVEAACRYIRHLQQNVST

Relative binding free energy, -0.12 kcal/mol:
CTTGCCACGTGGGTTT
GTTCGCACGTGGGGTA
AGTGTCACGTGTTGCA

Relative binding free energy, 0.07 kcal/mol:
CATGTCACGTGTTTGG
AGGGTCACGTGGATGT

Relative binding free energy, -0.03 kcal/mol:
TACGTCACGTGGCGGT
TGTTGCACGTGCGTGC
CGTAACACGTGGGATG
AATGTCACGTGGTTGT
AGGGTCACGTGGGCCA

Relative binding free energy, -0.04 kcal/mol:
TGCAACACGTGTTGGT
AGGGACACGTGCGTGG
GCTAGCACGTGTGGTT

Relative binding free energy, 0.3 kcal/mol:
GGATTCACGTGTTAGC
TTACACACGTGAGTTT

Relative binding free energy, -0.17 kcal/mol:
ATAGGCACGTGTCGGG
GTGGGCACGTGTCTTA

Relative binding free energy, -0.32 kcal/mol:
ACGGGCACGTGGGCAG

Relative binding free energy, 0.05 kcal/mol:
CTTGTCACGTGGGGAA
TAAAACACGTGTGTGT
TATGGCACGTGTCTTT

Relative binding free energy, 0.17 kcal/mol:
ATTTTCACGTGTTACT
GTGGGCACGTGAATAT
ATCTTCACGTGCTGGT
GTGGGCACGTGAGGCT

Relative binding free energy, 0.24 kcal/mol:
TGTGTCACGTGACGAG
GGATTCACGTGTGGAT
ACTCACACGTGTGGTT
ATGTTCACGTGGAGTA

Relative binding free energy, -0.01 kcal/mol:
CAGCGCACGTGTGGGA
AATTGCACGTGCGGTA
GTTAGCACGTGGTCAT

Relative binding free energy, -0.13 kcal/mol:
ATTGGCACGTGCTTCG
AAGTACACGTGGGGGT
TGAGGCACGTGGACAG
TCGGGCACGTGTTGTG

Relative binding free energy, 0.09 kcal/mol:
AGTGTCACGTGTTTAG
TGTATCACGTGGGGTT
GGTAGCACGTGATTTT

Relative binding free energy, 0 kcal/mol:
GAATGCACGTGTTTGT
TTCTCCACGTGTGGGG
AGTTACACGTGGGTGA
TGATGCACGTGTAGCT
TTAGACACGTGTATGC
AGTAGCACGTGTATGA
TTATGCACGTGGCATG

Relative binding free energy, -0.1 kcal/mol:
TGTACCACGTGGGTTT
TGAAGCACGTGTGCGG
GTGAGCACGTGGACGT
AGGGGCACGTGCAAGG
ATAGGCACGTGTGTAT

Relative binding free energy, 0.32 kcal/mol:
GTTTACACGTGAGGGC
TACTTCACGTGTTTTC

Relative binding free energy, -0.18 kcal/mol:
GGAAGCACGTGTGAGG

Relative binding free energy, -0.16 kcal/mol:
AGGAGCACGTGGTAGG

Relative binding free energy, 0.11 kcal/mol:
TTTACCACGTGTAGGG
GAGTACACGTGTTTGT
GTTGACACGTGACGTG
ATTAGCACGTGTAAAG
TCGTTCACGTGGTATT
ATGTTCACGTGACATG
AGCGTCACGTGGCGCG
GCAAGCACGTGAGGTG
CGAGTCACGTGGAGTT

Relative binding free energy, 0.08 kcal/mol:
CGTATCACGTGGGCAT
ATGGGCACGTGAGCGC
CATTTCACGTGGGTAA
GATGACACGTGTTAGT

Relative binding free energy, 0.42 kcal/mol:
TCAGTCACGTGACTTG

Relative binding free energy, 0.25 kcal/mol:
TTTTTCACGTGTCTCT
TGGGACACGTGAGGGA
GCGTTCACGTGGTCGG
GGGGGCACGTGAATGC

Relative binding free energy, -0.21 kcal/mol:
GTAAGCACGTGGGTAG
CTTGGCACGTGCGGGT
ATGGCCACGTGGCGGT
TTCAGCACGTGCGGGG
GTCAGCACGTGGGGTT
GTAGGCACGTGGGCTA

Relative binding free energy, -0.08 kcal/mol:
TGGTCCACGTGGGCTA
GGCAGCACGTGTAGGT
TTGGACACGTGGGGTT

Relative binding free energy, 0.1 kcal/mol:
TGTGTCACGTGTGCTT
GGAAGCACGTGATGGG
GTAGGCACGTGATGAT
GTAAACACGTGTGTAG
TCCGGCACGTGTGAGT

Relative binding free energy, 0.29 kcal/mol:
ATTTTCACGTGGGCGG

Relative binding free energy, 0.01 kcal/mol:
GTAGTCACGTGGGATG
GTGCGCACGTGTGGAA
ATGACCACGTGTATGG
GTGGTCACGTGTCGCT

Relative binding free energy, -0.07 kcal/mol:
ATAAGCACGTGTATGT
TTGATCACGTGCGGGA

Relative binding free energy, 0.31 kcal/mol:
GCTGGCACGTGAATAT
GGTATCACGTGATGGT
CAGTTCACGTGTGGTA
ACTTTCACGTGTGTAT
TTTTTCACGTGTTTGT

Relative binding free energy, 0.37 kcal/mol:
AGGATCACGTGCATTT
AAGTTCACGTGGCGGT
TTCTTCACGTGTTCGG

Relative binding free energy, 0.35 kcal/mol:
GGTGACACGTGAGTAT
TGATTCACGTGGCGTT

Relative binding free energy, -0.22 kcal/mol:
TATTCCACGTGGGTGG

Relative binding free energy, 0.23 kcal/mol:
ATGCTCACGTGTGATG

Relative binding free energy, 0.15 kcal/mol:
TCGGTCACGTGTAGGC
GAGGTCACGTGCCGGG
GGTGTCACGTGTTTGC
GTCGGCACGTGAGGGA
TAGGGCACGTGAGGAG

Relative binding free energy, -0.09 kcal/mol:
AGGAACACGTGGGGAT
TGGGGCACGTGGAAGA
GGGACCACGTGGTAGT
TCCGGCACGTGGTGGC

Relative binding free energy, 0.41 kcal/mol:
TTGCTCACGTGATTTA
GAGGCCACGTGAAAGG

Relative binding free energy, 0.22 kcal/mol:
AGTACCACGTGATTGG
ATATTCACGTGGTGCT
GTGTTCACGTGAACGT
GGCGACACGTGAGGTT

Relative binding free energy, 0.21 kcal/mol:
GTAGTCACGTGGATCT
GTCTCCACGTGTGGGG

Relative binding free energy, -0.19 kcal/mol:
GGGCGCACGTGCGAGT

Relative binding free energy, 0.39 kcal/mol:
TACTTCACGTGTTGTA

Relative binding free energy, -0.3 kcal/mol:
ATAGGCACGTGGGGGT
TGACGCACGTGGGTTG

Relative binding free energy, 0.36 kcal/mol:
AGGTTCACGTGAAGTG

Relative binding free energy, 0.27 kcal/mol:
AAGATCACGTGTGGAT
GAAGTCACGTGTATGG
AGTATCACGTGATGTT
TTTTTCACGTGCTCGG

Relative binding free energy, 0.16 kcal/mol:
AGTTACACGTGACTGG
GATTACACGTGGAGTT
TGTAGCACGTGACGAG
ATGCTCACGTGTCTGT
AATTACACGTGTAGGG
GTGTACACGTGATGTG

Relative binding free energy, 0.04 kcal/mol:
GAGGGCACGTGTTAAG
TAAGACACGTGTGGGT
TTTAACACGTGTGTAC
TAGCGCACGTGATTTG
GAGCACACGTGGGTTT
TTGAACACGTGGAGGC

Relative binding free energy, 0.18 kcal/mol:
TCTTTCACGTGGTAGT
GTTATCACGTGGTACA
TAGATCACGTGGAGAG
GTCATCACGTGGTATG
GGGGTCACGTGTGAGC
AGGTGCACGTGTAGAT
TTTGGCACGTGAGAGA
TTGGTCACGTGTTAAG

Relative binding free energy, -0.05 kcal/mol:
GTGGCCACGTGCCGGT
GGACGCACGTGCTGGG
AAGAACACGTGGAGTG
GGCGGCACGTGTCGGG

Relative binding free energy, 0.14 kcal/mol:
TGTGTCACGTGTGGGA
TCGAGCACGTGATGGT
GTTTGCACGTGTACTT
GTGGTCACGTGTTTAC

Relative binding free energy, 0.51 kcal/mol:
TAATTCACGTGAGGAT

Relative binding free energy, -0.02 kcal/mol:
AGAGACACGTGTTGTG
GTGTGCACGTGGTTCA
TTTGTCACGTGTGCAG
TGAGTCACGTGCTAGG
TTATGCACGTGTGGCA
AGGGACACGTGCTGTT

Relative binding free energy, 0.13 kcal/mol:
TAGGTCACGTGGAAAG
TTGGACACGTGTGGCT
TGAGACACGTGTTAAG

Relative binding free energy, -0.31 kcal/mol:
CTGGGCACGTGCGCGG

Relative binding free energy, -0.24 kcal/mol:
CAGGGCACGTGGGTCT

Relative binding free energy, -0.14 kcal/mol:
CTGTACACGTGGGTAA

Relative binding free energy, 0.19 kcal/mol:
AGCTGCACGTGAGGTA
TGTTTCACGTGGTGGA

Relative binding free energy, -0.2 kcal/mol:
TTAGGCACGTGTCATG
AATGGCACGTGGGATG
TGGGGCACGTGGCATG
TGTGGCACGTGGGCTG

Relative binding free energy, 0.2 kcal/mol:
ACGTTCACGTGGGGCT
AGAGTCACGTGTATGT
TATATCACGTGTCATG

Relative binding free energy, 0.33 kcal/mol:
TGATTCACGTGTGCTA
AATTTCACGTGTTATC

Relative binding free energy, -0.06 kcal/mol:
TTGGGCACGTGATGCC
ATTGACACGTGCGGGT
TATGACACGTGTTCGT
GGGCGCACGTGGTAAG
ATGGCCACGTGTTTGG
GTGGACACGTGGTGAC
TCGGTCACGTGGGCGG
TTTGGCACGTGGACAG
TTCTACACGTGGTAGT
AGTACCACGTGGGATT

Relative binding free energy, 0.26 kcal/mol:
AGGTACACGTGAGGCA
TTAGACACGTGTAAAG
GGTGTCACGTGTGAGA

Relative binding free energy, 0.12 kcal/mol:
TTCTTCACGTGGTGAA
AGGGACACGTGATGCT
TTTGGCACGTGTAATC
GCTTGCACGTGTAGAG
GGAGACACGTGTAATG

Relative binding free energy, -0.15 kcal/mol:
AGGACCACGTGGTGGT
TGGGGCACGTGCGAAA
AAATGCACGTGCTGTG

Relative binding free energy, 0.02 kcal/mol:
TGGTGCACGTGGAAAT
ATATACACGTGTTATT
GGTTGCACGTGCATTA
GTGGCCACGTGGTAGC

Relative binding free energy, 0.46 kcal/mol:
TAAATCACGTGAGGGC

Relative binding free energy, 0.03 kcal/mol:
GCGGTCACGTGGGCGT
AGGTGCACGTGGAAGC
GTGTGCACGTGTCGGG
TCATGCACGTGTCTGT
AGGTGCACGTGGCTCG
ATAGGCACGTGATGCT
GGAGGCACGTGTGATG
GTTGCCACGTGGAATG

Relative binding free energy, 0.06 kcal/mol:
TTTGTCACGTGCGTGC
TATGACACGTGTTTGG
GCGTACACGTGTGGGA

Relative binding free energy, 0.28 kcal/mol:
GGAATCACGTGTCTTT

Relative binding free energy, -0.11 kcal/mol:
AAGGGCACGTGCCGTG
AAGTCCACGTGGGTAG
CTGTGCACGTGGTTGG
TTTCACACGTGGGGGT
GATGGCACGTGGCGCG
TATCGCACGTGCGGTG
GTGGCCACGTGGTGTC

Relative binding free energy, 0.34 kcal/mol:
TGATTCACGTGTGGCT
